Experimental data published in PMC12136788.
The list shows a part of the results.

T1: UNK ZnF1-3 (human, UniProt Q9C0B0 31-174)
T1 sequence: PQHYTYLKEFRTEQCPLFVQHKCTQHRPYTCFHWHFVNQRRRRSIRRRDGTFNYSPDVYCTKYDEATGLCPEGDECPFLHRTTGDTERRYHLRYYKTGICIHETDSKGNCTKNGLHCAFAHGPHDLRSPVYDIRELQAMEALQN

B1: chr1:78428562:78428563:-_ENSG00000162613_ENST00000370768|hu_hu|FALSE|FALSE (ssRNA)
RNA: GGGAGUUCUACAGUCCGACGAUCAAUUGUAAAUAACUUCAUAUUAGGAUCUGCAUUUGGUGGAGGAUUUCUCUGAAGUUCUAUUCUUGCACCAGACUGCUGGCUUAUGCUUUUUAUGGUUUCACCUCCUUUUCCUAUUAUUAACAACAGAGGAUUGAGCAUCA
B2: 32628072_32628902_1011_CDS_ENSG00000025800_ENST00000373625|human|control|control (ssRNA)
RNA: GGGAGUUCUACAGUCCGACGAUCGUCAUCCCCAGUGACGAUGUUACCCACGGCUCUCAGGGCAGGAGAAGCCACUUUGUAAUCAUUGUGCAUCAGCAGCUCUACCAAUCUCCGGCAGACUCCGGAGUCUAUGACUGCCUGGAUCAACAGAGGAUUGAGCAUCA
B3: chrX:41002637:41002638:+_ENSG00000124486_ENST00000378308|hu_mus|FALSE|FALSE (ssRNA)
RNA: GGGAGUUCUACAGUCCGACGAUCUGCUGCCCAGAUAUUAUCAAGAUCUUGCAAGGUCAGAGCUUUUUCUUUUAUGACAAAGCGAAGAAUCUUUUCUAGUUUCUCUACAUACUGUGGUUGAUGAAGGCUAUCUCGUAAAACUAUCAACAGAGGAUUGAGCAUCA
B4: 21856164_21856284_243_5pUTR_ENSMUSG00000003410_ENSMUST00000003501|mouse|control|control (ssRNA)
RNA: GGGAGUUCUACAGUCCGACGAUCGAGGAGGAGAUGGAGGCGGCGGCGCCUUCGAAGGCCGGGAACUGACCCGAGCCUGGGGAUGCGCGCUUCGACGGCCAGACCCCCAGCGGCAGGUGGAUGGAGGGAGCGGGCACGCAGUGGCAACAGAGGAUUGAGCAUCA
B5: chr20:54972846:54972847:+_ENSG00000101138_ENST00000217109|hu_mus|FALSE|FALSE (ssRNA)
RNA: GGGAGUUCUACAGUCCGACGAUCGGCUUCCUGAAUGUAUUUGAAAGCUCUUUUUGCAGACGGUUUGGAAUAAUCGAACAAUUUCAGAGUAUAAUCCCUUGAGCCCGAGGCCAGGAUCUGUUCUGUUGGGUGAAAAGCAAGACACAACAGAGGAUUGAGCAUCA
B6: chr1:90180492:90180493:+_ENSG00000171488_ENST00000370454|hu_hu|FALSE|FALSE (ssRNA)
RNA: GGGAGUUCUACAGUCCGACGAUCUUUCAUUUGCUCCCGGACGUCAGAAGGCAGAGUUUCAAACAGAGCAUCUUCUACAACUAAACCAGCUCGCUUCAGAGCCCGACAGUCACCCAGUUCAGGAGGGAGGAUUUCAAAGUGAUUCAACAGAGGAUUGAGCAUCA
B7: chr1:39494447:39494448:+_ENSG00000168653_ENST00000372967|hu_mus|hu_hu_hu_mus_False|8_98 (ssRNA)
RNA: GGGAGUUCUACAGUCCGACGAUCGCACCGAGCGGCGAUCUUGUAGGGCUGUUCUGCGCUUAGGAACAUAAAGUGCCGGUCCAGGCUGAUGCCCAGCUUUUUCUGUAUGUCAAGGAAAGGCAUGGCUGAUGCUCGUGCUUGUCACAACAGAGGAUUGAGCAUCA
B8: chr4:83276511:83276512:-_ENSG00000138668_ENST00000353341|hu_mus|FALSE|FALSE (ssRNA)
RNA: GGGAGUUCUACAGUCCGACGAUCCUUCACCACCUGUUGGGGAUAAGUUGCAAAUGGAAUAAUUUAGUAUGGUUUGUAGCUAUUUUGAUGUCCACCUCGCCUGGAUACUUUCCCAUAACCACUCUGCUGAUUGCUAUAAUCACCCAACAGAGGAUUGAGCAUCA
B9: 59843556_59845208_1259_CDS_ENSMUSG00000035469_ENSMUST00000043227|mouse|control|control (ssRNA)
RNA: GGGAGUUCUACAGUCCGACGAUCGUGCCCGCCUUGUGUCUUGGCAGCAGAUGUGUGGGUGGAGUGGCAAGCUGCAAUCUCUAUAACCCUUUCUUUUUCCACCAUGAUUUGUGUUGGGCUCAGCAGGUUAUUUUUACUUCCAGUCAACAGAGGAUUGAGCAUCA
B10: chr3:119450855:119450856:-_ENSMUSG00000028134_ENSMUST00000029780|mus_hu|mus_mus_mus_hu_False|48_78 (ssRNA)
RNA: GGGAGUUCUACAGUCCGACGAUCUGUGGUGCCACUAAGAGGAGUAUUUGCUGUCUGGACCGCUGUCACAGCUUGAAGAACUGCCUGCGCACGUUGGUUUAAUGUAUUAUCUGUCUUUAGUUCUUUGUGAUUCGAGUACUGGAUCAACAGAGGAUUGAGCAUCA
B11: 157883469_157883589_81_5pUTR_ENSMUSG00000026466_ENSMUST00000097527|mouse|control|control (ssRNA)
RNA: GGGAGUUCUACAGUCCGACGAUCGGGAGGCAGUUGAGAGUCGCCGGGGCCGCCGCCUGCGUCCUCGCUCGUGUGCCACCAACCAGCCUCCAGGCCCAUGGUGUGUCCUGAGGGCUGUCGGAGAGGCAGUGCCCGAGCUGGGUCCAACAGAGGAUUGAGCAUCA
B12: chr2:117093540:117093541:+_ENSMUSG00000027349_ENSMUST00000028825|mus_mus|FALSE|FALSE (ssRNA)
RNA: GGGAGUUCUACAGUCCGACGAUCCAAUGUGACUGUUGUCUUGGGCGACAGAGCAUAACGCUUGGGCUGGUAAAUUCUUGCUAUGUUAUCUGUUUUUGCCUUUGCUCUAUCGGACCAUCCAAAGGACUGCACUGUCACAUCCAACAACAGAGGAUUGAGCAUCA
B13: chr3:176767854:176767855:-_ENSG00000177565_ENST00000430069|hu_hu|hu_hu_hu_mus_False|68_88 (ssRNA)
RNA: GGGAGUUCUACAGUCCGACGAUCGACAUCCUUGUUACUGGGCACGUCUUGCCCUCCUUCCCGUAUGCAAUGUCUAAGCACGAGCUGCGUAGGGCCACUCGUGCUGUUCUCACUGAGGUUCCAGAUUCUUGCCGUGGAGUCUCCCAACAGAGGAUUGAGCAUCA
B14: 17772861_17772981_1224_3pUTR_ENSMUSG00000057614_ENSMUST00000074694|mouse|control|control (ssRNA)
RNA: GGGAGUUCUACAGUCCGACGAUCUUAUUCUUUAUGAUGACGUCUGUUACAGCAUCGAACACGAACUGCACGUUCUUCGUAUCUGUGGCGCACGUGAAGUGGGUGUAAAUUUCCUUUGUGUCCUUCCUUUUAUUGAGGUCUUCACAACAGAGGAUUGAGCAUCA
B15: chr7:56130949:56130950:+_ENSG00000146731_ENST00000540286|hu_hu|FALSE|FALSE (ssRNA)
RNA: GGGAGUUCUACAGUCCGACGAUCUCACUGGAUAAAAGACCUGCUUUAUGUGUAUACACUUCAGUGCAAUUUUUAAAAAUACUAUAAUUUCAGAACUUCCAAAUUUCAACAGAUGCCAGUGUUCUCUCCUUUUUUCAUAUGGGACAACAGAGGAUUGAGCAUCA
B16: chr3:41417089:41417090:+_ENSMUSG00000025764_ENSMUST00000026865|mus_mus|FALSE|FALSE (ssRNA)
RNA: GGGAGUUCUACAGUCCGACGAUCAACCAAGGAAGUGCCCAUUUGUUUCCUGAAGAAUGCAGAAUGCCAUUUCAAGUCCUCUAUCUUGGGAGCAUUGGGGCCCACAGAAGGACUGUUGAAAAAAAGCAUGUUCUCCAGUGCGGACAACAGAGGAUUGAGCAUCA
B17: chr11:77336104:77336105:-_ENSG00000074201_ENST00000525064|hu_mus|hu_hu_hu_mus_False|1_108 (ssRNA)
RNA: GGGAGUUCUACAGUCCGACGAUCCUCGCACAUUGCAGUGAACAUCGCCUCCAAUGCUGACUUAUCACUGGGCACAAAUCGAAAUUCAGAAAUGGGUUCAACAUCAUCAUUGUCUUCCUCAUCUUCAUCAGAGAGAGCAGGUUCCAACAGAGGAUUGAGCAUCA
B18: 83822515_83822635_1918_3pUTR_ENSMUSG00000034940_ENSMUST00000092834|mouse|control|control (ssRNA)
RNA: GGGAGUUCUACAGUCCGACGAUCUGCUGCUGGACAAGGGGCUGGGACUCACUUCCUCCCUGAGGGCUUCAUACUUGUCACUUGCUUUUGGCUCAGAUGAAAUGGAGCUGUUACCGAAAGCCAUAAAAUCUGCAAAGUCGUCCUCAACAGAGGAUUGAGCAUCA
B19: 21758683_21758803_1091_3pUTR_ENSMUSG00000047368_ENSMUST00000052556|mouse|control|control (ssRNA)
RNA: GGGAGUUCUACAGUCCGACGAUCAAAUUUACCAGUUCCUGUGACACGAACUGUUUUAACCUCUCAAGGUAUUGUCCAUAAAGCUCCACGUCAUUGUGUCCUGCCCCUUCAACCCACAGGGGCUCCACAGGUCUUUGGCAGCGCCAACAGAGGAUUGAGCAUCA
B20: chr6:168291551:168291552:+_ENSG00000130396_ENST00000400822|hu_hu|FALSE|FALSE (ssRNA)
RNA: GGGAGUUCUACAGUCCGACGAUCGUGUUUCUUGGUUUUCUUUGGGAUGUGGUCUGGUGGCCUCCUCUUCAACUGAAAGACUAAAAUCCCUUUGUCACUUGGCCAUUCCCUGAAGAUUUGUAAAGGACACUCAUCAUCAUCAAGCAACAGAGGAUUGAGCAUCA
B21: chr2:47387770:47387771:-_ENSG00000143933_ENST00000272298|hu_hu|motif|central (ssRNA)
RNA: GGGAGUUCUACAGUCCGACGAUCAAGGUUUUAGGACAAUGACAGUAAGAUAAGGGAAGAAAACAUGGAGGAAUGAAGUCCGGAUUACUAUACAUGCAUAUUUUUUUGACAGUAGGGAGAAACCUUUUACAGAUAAGUUACAAACAACAGAGGAUUGAGCAUCA
B22: chr21:30248746:30248747:-_ENSG00000156239_ENST00000303775|hu_mus|motif|central (ssRNA)
RNA: GGGAGUUCUACAGUCCGACGAUCGAGCGAUUGUUCAGCUGCCGGCAGCUCUUGUUUACUUCUGUGGCUUUCAGGACACGGGGACUUGCUGAACCUGAGGACUGACAGGGCUUCUUGGCCUGCUUGCCUGCAAAGUGCUGUGGUCAACAGAGGAUUGAGCAUCA

These binders were tested against T1, UNK ZnF1-3 (assay: nsRBNS (natural sequence RNA bind-n-seq); RBNS binding buffer (assumed for nsRBNS): 25 mM Tris pH 7.5, 150 mM KCl, 3 mM MgCl2, 0.01% Triton X-100, 500 ug/ml BSA, 20 U/ml SUPERase-In, 4 C; UNK is unkempt and MSI1 is Musashi-1; names of the RNAs are library labels; protein concentration not given here; high values mean tight binding).

Binder	binding signal [enrichment R]
B1	0.732
B2	0.842
B3	1.04
B4	1.26
B5	0.546
B6	3.22
B7	0.874
B8	0.939
B9	0.635
B10	0.744
B11	0.476
B12	0.375
B13	0.471
B14	0.421
B15	2.03
B16	1.18
B17	1.17
B18	1.22
B19	0.988
B20	0.692
B21	1.45
B22	1.14
